The text below walks through data of the supplement of paper PMC12217912.

B1: TEV protease; numbered along this chain (parent)
chain: MGESLFKGPRDYNPISSSICHLTNESDGHTTSLYGIGFGPFIITNKHLFRRNNGTLVVQSLHGVFKVKDTTTLQQHLVDGRDMIIIRMPKDFPPFPQKLKFREPQREERICLVTTNFQTKSMSSMVSDTSCTFPSGDGIFWKHWIQTKDGQCGSPLVSTRDGFIVGIHSASNFTNTNNYFTSVPKNFMELLTNQEAQQWVSGWRLNADSVLWGGHKVFMVKPEEPFQPVKEATQL

Variants of B1 are the subject of the assay. As to the kind of experiment: raw area under fraction-flipped curve 0-4 h after induction (AUC4h, not background-subtracted), DNA-recorder readout of cleavage of the substrate (dimensionless); higher = more cleavage of the substrate by the protease variant. The following applies: temperature: 34 °C; time window: 0-4 h after rhamnose induction. Here is the method:
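In vivo DNA recorder in E. coli TOP10(DE3) ΔrhaA at 34 °C. Each TEVp single-site mutant (parent TEVp 0) is paired with a single-site variant of the 7-mer TEVs (canonical ENLYFQ|S). The substrate sits between flexible linkers in a Bxb1-sfGFP-TEVs-SsrA fusion, so cleavage stabilises Bxb1 and speeds flipping of a recombination array, read by NGS. The value is the raw area under the fraction-flipped curve over 0-4 h after rhamnose induction (AUC4h), with ≥20 reads per time point. It is not background-subtracted; inactive controls average about 0.047.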

The list shows a part of the results. Sequences were assembled here from the parent chain. Inactive controls read about 0.05.
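Further: Bxb1 expression induced with 0.2% (w/v) L-rhamnose at OD600 near 0.5, cultures sampled hourly, flipped fraction per protease–substrate barcode pair counted by paired-end Illumina sequencing.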

For the variant MGESLFKGPRDYNPISSSICHLTNESDGHTTSLYGIGFGPFIITNKHLFRRNNGTLVVQSLHGVFKVKDTTTLQQHLVDGRDMIIIRMPKDFPPFPQKLKFREPQREERICLVTTNFQTKSMSSMVSDTSCTFPSGDGIFWKHWIQTKDGQCGSPLVSTRDGFIVGIHSASNFTNTNNYFTSVPKNFMELLTNQEAQQWVSGWRLNADSVLWGGHKVMMVKPEEPFQPVKEATQL [F218M], the “area with substrate ENLYFQC” value was 0.0933, the “area with substrate ENLYFQG” value came out at 0.102, the “area with substrate ENLYFQH” value was 0.0687 and the “area with substrate ENLYFQK” value was determined as 0.0327. Also, the “area with substrate ENLYFQL” value was found to be 0.0593, the “area with substrate ENLYFQM” value stood at 0.0775, the “area with substrate ENLYFQQ” value is 0.0365 and the “area with substrate ENLYFQR” value was determined as 0.0596. Also, the “area with substrate ENLYFQS” value amounted to 0.104, the “area with substrate ENLYFQT” value came to 0.0511 and the “area with substrate ENLYFQW” value came out at 0.0737.
Take MGESLFKGPRDYNPISSSICHLTNESDGHTTSLYGIGFGPFIITNKHLFRRNNGTLVVQSLHGVFKVKDTTTLQVHLVDGRDMIIIRMPKDFPPFPQKLKFREPQREERICLVTTNFQTKSMSSMVSDTSCTFPSGDGIFWKHWIQTKDGQCGSPLVSTRDGFIVGIHSASNFTNTNNYFTSVPKNFMELLTNQEAQQWVSGWRLNADSVLWGGHKVFMVKPEEPFQPVKEATQL [Q75V]: the “area with substrate ENLYFQC” value came to 0.147, the “area with substrate ENLYFQG” value was 0.0869, the “area with substrate ENLYFQM” value came to 0.084 and the “area with substrate ENLYFQN” value worked out at 0.0701. The “area with substrate ENLYFQP” value worked out at 0.0484, the “area with substrate ENLYFQS” value is 0.0934, the “area with substrate ENLYFQT” value turned out to be 0.0594 and the “area with substrate ENLYFQV” value amounted to 0.0582. Moreover, the “area with substrate ENLYFQY” value came to 0.0591.
For MGESLFKGPYDYNPISSSICHLTNESDGHTTSLYGIGFGPFIITNKHLFRRNNGTLVVQSLHGVFKVKDTTTLQQHLVDGRDMIIIRMPKDFPPFPQKLKFREPQREERICLVTTNFQTKSMSSMVSDTSCTFPSGDGIFWKHWIQTKDGQCGSPLVSTRDGFIVGIHSASNFTNTNNYFTSVPKNFMELLTNQEAQQWVSGWRLNADSVLWGGHKVFMVKPEEPFQPVKEATQL [R10Y], the “area with substrate ENLYFQC” value came to 0.068, the “area with substrate ENLYFQD” value was 0.0608, the “area with substrate ENLYFQE” value stood at 0.0681 and the “area with substrate ENLYFQG” value came to 0.0752. Further, the “area with substrate ENLYFQH” value was determined as 0.0615, the “area with substrate ENLYFQK” value stood at 0.0653, the “area with substrate ENLYFQL” value stood at 0.0514 and the “area with substrate ENLYFQM” value came out at 0.0969. Moreover, the “area with substrate ENLYFQN” value came out at 0.0681, the “area with substrate ENLYFQR” value turned out to be 0.07, the “area with substrate ENLYFQS” value amounted to 0.0821 and the “area with substrate ENLYFQT” value was determined as 0.0608. For the same variant, the “area with substrate ENLYFQW” value was 0.0585 and the “area with substrate ENLYFQY” value is 0.0715.
For the variant MGESLFKGPRDYNPTSSSICHLTNESDGHTTSLYGIGFGPFIITNKHLFRRNNGTLVVQSLHGVFKVKDTTTLQQHLVDGRDMIIIRMPKDFPPFPQKLKFREPQREERICLVTTNFQTKSMSSMVSDTSCTFPSGDGIFWKHWIQTKDGQCGSPLVSTRDGFIVGIHSASNFTNTNNYFTSVPKNFMELLTNQEAQQWVSGWRLNADSVLWGGHKVFMVKPEEPFQPVKEATQL [I15T], the “area with substrate ENLYFQC” value was determined as 0.121, the “area with substrate ENLYFQD” value is 0.0595, the “area with substrate ENLYFQE” value turned out to be 0.07 and the “area with substrate ENLYFQG” value worked out at 0.0884. Moreover, the “area with substrate ENLYFQH” value is 0.0821, the “area with substrate ENLYFQI” value came to 0.0546, the “area with substrate ENLYFQK” value is 0.0766 and the “area with substrate ENLYFQL” value came to 0.0591. Moreover, the “area with substrate ENLYFQM” value turned out to be 0.0906, the “area with substrate ENLYFQN” value amounted to 0.0817, the “area with substrate ENLYFQP” value turned out to be 0.0548 and the “area with substrate ENLYFQQ” value was 0.07. The “area with substrate ENLYFQR” value worked out at 0.0547, the “area with substrate ENLYFQS” value came out at 0.0988, the “area with substrate ENLYFQT” value stood at 0.0578 and the “area with substrate ENLYFQV” value worked out at 0.0476. In addition, the “area with substrate ENLYFQW” value turned out to be 0.0648.
MGESLFKGPRDYNPISSSICHLTNESDGHTTSLYGIGFGPFIITNKHLFRRNNGTLVVLSLHGVFKVKDTTTLQQHLVDGRDMIIIRMPKDFPPFPQKLKFREPQREERICLVTTNFQTKSMSSMVSDTSCTFPSGDGIFWKHWIQTKDGQCGSPLVSTRDGFIVGIHSASNFTNTNNYFTSVPKNFMELLTNQEAQQWVSGWRLNADSVLWGGHKVFMVKPEEPFQPVKEATQL [Q59L]: the “area with substrate ENLYFQC” value was determined as 0.108, the “area with substrate ENLYFQF” value was determined as 0.089, the “area with substrate ENLYFQI” value amounted to 0.0478 and the “area with substrate ENLYFQL” value was determined as 0.0497. Also, the “area with substrate ENLYFQM” value was determined as 0.11, the “area with substrate ENLYFQS” value was found to be 0.11 and the “area with substrate ENLYFQW” value is 0.0741.
Take MGESLFKGPRDYNPISSSICHLTNESDGHTTSLYGIGFGPFIITNKHLFRRNNGTLVVQSLHGVFKVKDTTTLQQHLVDGRDMIIIRMPKDFPPFPQKLKFREPQREERICLVITNFQTKSMSSMVSDTSCTFPSGDGIFWKHWIQTKDGQCGSPLVSTRDGFIVGIHSASNFTNTNNYFTSVPKNFMELLTNQEAQQWVSGWRLNADSVLWGGHKVFMVKPEEPFQPVKEATQL [T114I]: the “area with substrate ENLYFQC” value was 0.124, the “area with substrate ENLYFQF” value stood at 0.0669, the “area with substrate ENLYFQH” value stood at 0.0882 and the “area with substrate ENLYFQI” value stood at 0.0596. For the same variant, the “area with substrate ENLYFQK” value is 0.0494, the “area with substrate ENLYFQL” value came out at 0.0672, the “area with substrate ENLYFQM” value amounted to 0.0831 and the “area with substrate ENLYFQN” value stood at 0.0717. The “area with substrate ENLYFQP” value came to 0.0597, the “area with substrate ENLYFQR” value was 0.0513, the “area with substrate ENLYFQS” value was found to be 0.0953 and the “area with substrate ENLYFQT” value was 0.048. The “area with substrate ENLYFQV” value came out at 0.0089.
Take MGESLFKGPRDYNPISSSICHLTNESDGHTTSLYGIGFGPFIITNKHLFRRNNGTLVVQSLHGVFKVGDTTTLQQHLVDGRDMIIIRMPKDFPPFPQKLKFREPQREERICLVTTNFQTKSMSSMVSDTSCTFPSGDGIFWKHWIQTKDGQCGSPLVSTRDGFIVGIHSASNFTNTNNYFTSVPKNFMELLTNQEAQQWVSGWRLNADSVLWGGHKVFMVKPEEPFQPVKEATQL [K68G]: the “area with substrate ENLYFQC” value stood at 0.0907, the “area with substrate ENLYFQI” value was determined as 0.0651, the “area with substrate ENLYFQK” value is 0.0659 and the “area with substrate ENLYFQL” value is 0.056. Also, the “area with substrate ENLYFQM” value amounted to 0.0818, the “area with substrate ENLYFQN” value came out at 0.0741, the “area with substrate ENLYFQR” value amounted to 0.0607 and the “area with substrate ENLYFQS” value was 0.0973. Besides, the “area with substrate ENLYFQV” value worked out at 0.0602.
On to MGESLFKGPRDYNPISSSICHLTNESDGHTTSLYGIGFGPFIITNKHLFRRNNGTLVVQSLHGVFKVKDTTTLQQHLVDGRDMIIIRMPKDFPPFPQKLKFREPQREERICLVTTNFQTKSMSSMVSDTSCTFVSGDGIFWKHWIQTKDGQCGSPLVSTRDGFIVGIHSASNFTNTNNYFTSVPKNFMELLTNQEAQQWVSGWRLNADSVLWGGHKVFMVKPEEPFQPVKEATQL [P134V], for which the “area with substrate ENLYFQC” value came to 0.0823, the “area with substrate ENLYFQD” value turned out to be 0.0548, the “area with substrate ENLYFQF” value is 0.0578 and the “area with substrate ENLYFQH” value came to 0.0748. Moreover, the “area with substrate ENLYFQI” value turned out to be 0.0678, the “area with substrate ENLYFQK” value amounted to 0.0685, the “area with substrate ENLYFQL” value is 0.0636 and the “area with substrate ENLYFQM” value turned out to be 0.0517. For the same variant, the “area with substrate ENLYFQN” value turned out to be 0.0817, the “area with substrate ENLYFQQ” value was determined as 0.0589, the “area with substrate ENLYFQR” value was 0.0497 and the “area with substrate ENLYFQS” value is 0.0835. For the same variant, the “area with substrate ENLYFQT” value is 0.0631, the “area with substrate ENLYFQV” value worked out at 0.0543, the “area with substrate ENLYFQW” value stood at 0.0571 and the “area with substrate ENLYFQY” value came to 0.0507.
For MGESLFKGPRDYNPISSSICHLTNESDGHTTSLYGIGFGPFIITNKHLFRRNNGTLVVQSLHGVFKVKDTTTLQQHLVDGRDMIIIRMPKDFPPFPQKLKFREPQREERICLVTTNFQTKSMSHMVSDTSCTFPSGDGIFWKHWIQTKDGQCGSPLVSTRDGFIVGIHSASNFTNTNNYFTSVPKNFMELLTNQEAQQWVSGWRLNADSVLWGGHKVFMVKPEEPFQPVKEATQL [S124H], the “area with substrate ENLYFQC” value is 0.109, the “area with substrate ENLYFQH” value came out at 0.0839, the “area with substrate ENLYFQI” value was 0.0667 and the “area with substrate ENLYFQK” value stood at 0.0892. Further, the “area with substrate ENLYFQN” value was found to be 0.106, the “area with substrate ENLYFQR” value came to 0.0573, the “area with substrate ENLYFQS” value came to 0.103 and the “area with substrate ENLYFQW” value is 0.0618. The “area with substrate ENLYFQY” value is 0.0755.
For MGESLFKGPRDYNPISSSICHLTNESDGHTTSLYGIGFGPFIITNKHLFRRNNGTLVVQSLHGVFKVKDTTTLQQHLVDGRDMIIIRMPKDFPPFPQKLKFREPQREERICLVTTNFQTKSMSSMVSDTSCTFPSGDGIFWKHWIQTKDGQCGSPLVSTRDGFIVGIHSASNFTNTNNYFTSVPKNFMELLTNQEAQQWVSGWRLNADSVLWGGHKVFMVKPEENFQPVKEATQL [P225N], the “area with substrate ENLYFQC” value was found to be 0.106, the “area with substrate ENLYFQD” value was found to be 0.0585, the “area with substrate ENLYFQG” value is 0.113 and the “area with substrate ENLYFQL” value is 0.0617. Also, the “area with substrate ENLYFQN” value stood at 0.083, the “area with substrate ENLYFQP” value worked out at 0.114, the “area with substrate ENLYFQQ” value stood at 0.0807 and the “area with substrate ENLYFQR” value amounted to 0.0609. For the same variant, the “area with substrate ENLYFQS” value stood at 0.105, the “area with substrate ENLYFQV” value is 0.0957, the “area with substrate ENLYFQW” value was determined as 0.07 and the “area with substrate ENLYFQY” value is 0.0754.
